# Data as given in the supplement of paper PMC4166925.
# ± gives the standard deviation of the averaged measurements. The full ranking holds about 33,000 sequences; the median of “E-score (dimensionless, -0.5 to 0.5)” is about -0.046, and the highest 2% start at about 0.36. Some of the results follow.
# Tested on: T1, SpTbr T-box DNA-binding domain (GST fusion)
# T1 sequence: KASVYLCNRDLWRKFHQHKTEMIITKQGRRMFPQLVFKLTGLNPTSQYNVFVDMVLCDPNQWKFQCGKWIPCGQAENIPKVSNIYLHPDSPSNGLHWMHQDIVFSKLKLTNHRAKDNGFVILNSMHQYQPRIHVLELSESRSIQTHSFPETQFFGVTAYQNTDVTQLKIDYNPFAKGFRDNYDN
# Assay: PBM E-score of 8-mer (E-score (dimensionless, -0.5 to 0.5)); Tbr is Tbrain of the sea star Patiria miniata (Pm) or the sea urchin Strongylocentrotus purpuratus (Sp); higher = stronger binding preference; most listed sequences are background and not binding sites
# Conditions: the construct has about 5 more residues each side
# Outline: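 Primer extension turned Universal Agilent oligonucleotide arrays double-stranded. They were incubated with 200 nM protein in PBS (pH 7.5); the protein was a GST-fused Tbr T-box DNA-binding domain expressed in BL21 E. coli at 20 °C and purified on glutathione. Every ungapped 8-mer was scored from the scanned, quantified probe intensities, and the Universal PBM Analysis Suite gave each an enrichment E-score averaged over duplicate arrays.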
row,Sequence,PBM E-score of 8-mer
1,CTTCAACA,0.136 ± 0.049
2,AAATGCTC,-0.0185 ± 0.052
3,CTTCTTAA,-0.0647 ± 0.059
4,AGCAATTC,0.0799 ± 0.11
5,AGGGCGCG,0.324 ± 0.057
6,AAACTCAG,-0.301 ± 0.017
7,CGCCCGAA,-0.0276 ± 0.04
8,CCACCATC,0.0489 ± 0.024
9,ATTCCATA,-0.128 ± 0.062
10,TCACCGGA,-0.29 ± 0.0093
11,GGAGAAAC,-0.128 ± 0.045
12,CGCGGCGC,0.204 ± 0.064
13,ACATAGAT,-0.0781 ± 0.0099
14,CAAGAGAC,-0.123 ± 0.035
15,ATCGCTGA,0.00415 ± 0.019
16,CCCCACAC,0.334 ± 0.018
17,CCCCTTTC,-0.132 ± 0.052
18,ATGTGATG,0.329 ± 0.009
19,ATCAAAGC,-0.281 ± 0.0077
20,TAGCGAAA,-0.0569 ± 0.011
21,TAGCTACA,-0.226 ± 0.0092
22,ACAGCTGT,0.316 ± 0.013

row,Sequence,PBM E-score of 8-mer
1,TCGGCCGA,-0.0448 ± 0.043
2,TCCAGACA,0.0637 ± 0.019
3,GACTTGTA,-0.0936 ± 0.046
4,AGCCCAGG,-0.273 ± 0.029
5,AACTGAGT,-0.0793 ± 0.048
6,CCTCCTCA,0.0831 ± 0.027
7,AGACACGC,0.134 ± 0.021
8,AATGGTAT,-0.0995 ± 0.053
9,GAGACGCC,-0.168 ± 0.1
10,GTAACTCA,0.0452 ± 0.039
11,CAAACGGA,-0.0112 ± 0.027
12,ACACTGCG,0.2 ± 0.067
13,CTACCTCC,0.0136 ± 0.024
14,AAGGAGGG,-0.0491 ± 0.018
15,AAAGTGCA,0.128 ± 0.027
16,ACCCATAC,-0.178 ± 0.0069
17,ACTGCCCT,0.0181 ± 0.01
18,AAAAAGGC,0.069 ± 0.037
19,CGGATAAG,-0.102 ± 0.017
20,CGTGGCCC,-0.0587 ± 0.053
21,AATCTCGA,-0.0331 ± 0.011
22,GGGGTGCA,0.0939 ± 0.048

row,Sequence,PBM E-score of 8-mer
1,CGACTGCG,-0.0458 ± 0.08
2,ACCATATA,-0.338 ± 0.022
3,GTCATGAC,-0.0503 ± 0.035
4,ACCAAATG,-0.0159 ± 0.069
5,CGAAACAA,-0.0107 ± 0.018
6,ACCCTAGT,-0.0332 ± 0.021
7,AAGAGCGA,-0.199 ± 0.0033
8,GAAACTCA,0.0591 ± 0.029
9,GCAATCCA,0.0612 ± 0.022
10,GGGCCCAC,-0.125 ± 0.074
11,ACCGCTCA,-0.0847 ± 0.031
12,ATTTCGAC,0.0456 ± 0.049
13,AATTTGAT,-0.22 ± 0.0049
14,CGTCGCTC,-0.0419 ± 0.15
15,CGGGAGTA,-0.0751 ± 0.05
16,GCAACAGC,0.064 ± 0.047
17,ACTCGGAA,-0.0578 ± 0.023
18,TTCAGCAA,0.1121 ± 0.00026
19,ACAACCGC,0.123 ± 0.059
20,TATCGGCA,0.0114 ± 0.0094
21,CCCCAATC,0.0403 ± 0.017
22,CGTCCTAC,-0.306 ± 0.079

row,Sequence,PBM E-score of 8-mer
1,TCCTTACA,-0.0729 ± 0.062
2,ATAGTAAT,-0.0977 ± 0.013
3,AGACCAGG,-0.0868 ± 0.027
4,AGTTACAA,-0.08804 ± 0.00042
5,ATCTGGAA,-0.192 ± 0.14
6,CCGTACAC,0.0596 ± 0.042
7,CAAGGGGG,-0.213 ± 0.046
8,GCCACGCA,0.0155 ± 0.021
9,CACGCGTA,0.212 ± 0.014
10,AATGCTGC,-0.147 ± 0.055
11,CTGTACCA,-0.0774 ± 0.055
12,ATGACGTG,0.0931 ± 0.037
13,ACGAAGCC,-0.00822 ± 0.065
14,GACCACGA,-0.0723 ± 0.039
15,TCTATGCA,-0.204 ± 0.024
16,ACACTAAG,0.223 ± 0.041
17,GTGCTAGA,0.286 ± 0.022
18,GGAAAAAC,-0.142 ± 0.13
19,GGCATTCA,0.0268 ± 0.056
20,GCAGTGAC,0.0883 ± 0.023
21,AACTAGAT,-0.281 ± 0.02
22,GACGGCGC,0.141 ± 0.0081

row,Sequence,PBM E-score of 8-mer
1,AGCGCAAA,0.176 ± 0.012
2,GAACATCC,-0.117 ± 0.019
3,CCCATACC,-0.0855 ± 0.074
4,CTGTCTCC,-0.11 ± 0.084
5,ACGCTCCT,0.066 ± 0.0035
6,TACAGGTA,-0.0989 ± 0.0047
7,AAATCACT,-0.0453 ± 0.062
8,TGCTGAAA,0.0281 ± 0.029
9,AGCGCATC,-0.00261 ± 0.00078
10,CATCGCGG,0.173 ± 0.036
11,ATGCCATG,-0.0937 ± 0.081
12,CGAGACGA,0.11 ± 0.022
13,GGCGCCCC,-0.152 ± 0.031
14,ATTAGGCA,0.119 ± 0.0095
15,AGGAATAT,-0.15 ± 0.019
16,AAACCGGC,-0.078 ± 0.0037
17,CCTATCAC,0.282 ± 0.046
18,GCTTGCAC,0.186 ± 0.012
19,CAGGTTGC,0.111 ± 0.087
20,CCGGCTAG,-0.0855 ± 0.03
21,GGCCACCC,-0.109 ± 0.015
22,GGGAGAAA,-0.163 ± 0.018
